# Laboratory results: the supplement of paper PMC4604168 (melanoma cell lines)
# This is one part of the list. Many values rest on one well or one pass, so single values are uncertain.
# Assays:
# Assay in all cases: cell count relative to DMSO control; melanoma cells; higher = more viable cells
# Details in all cases: library dose: standard library concentration; 72 h
# G361 = system: G361
# IPC-298 = system: IPC-298
# IST-MEL1 = system: IST-MEL1
# LB2518-MEL = system: LB2518-MEL
# LOXIMVI = system: LOXIMVI
# MEL-HO = system: MEL-HO
# MZ2-MEL = system: MZ2-MEL
# MeWo = system: MeWo
# RPMI7951 = system: RPMI7951
# RVH-421 = system: RVH-421
# SkMel28 = system: SkMel28
# SkMel2 = system: SkMel2
# SkMel30 = system: SkMel30
# SkMel5 = system: SkMel5
# UACC257 = system: UACC257
# UACC62 = system: UACC62
# WM115 = system: WM115
# WM1716 = system: WM1716
# WM1745 = system: WM1745
# WM3526 = system: WM3526
# 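Further: cells treated in 1,536-well plates, then fixed and DAPI-stained, with nuclei counted from automated high-throughput microscope images.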
Compound,cell count (G361),cell count (IPC-298),cell count (IST-MEL1),cell count (LB2518-MEL),cell count (LOXIMVI),cell count (MEL-HO),cell count (MZ2-MEL),cell count (MeWo),cell count (RPMI7951),cell count (RVH-421),cell count (SkMel28),cell count (SkMel2),cell count (SkMel30),cell count (SkMel5),cell count (UACC257),cell count (UACC62),cell count (WM115),cell count (WM1716),cell count (WM1745),cell count (WM3526)
"C[C@]1(c2nc3c(C(N)=O)cccc3[nH]2)CCCN1 [Veliparib] + Cc1cc(SCc2sc(-c3ccc(C(F)(F)F)c(F)c3)nc2C)ccc1OCC(=O)O [GW0742] (first compound 7 µM, partner dose 10 µM)",91.3%,121%,104%,81%,97.1%,94.5%,108%,100%,103%,85.6%,77.2%,82.9%,96.6%,81.1%,101%,73.6%,71.8%,91%,67.5%,92.8%
"C[C@@H](N)c1ccc(C(=O)Nc2ccnc3[nH]ccc23)cc1 + N.N.[Cl][Pt][Cl] [cisplatin] (first compound 2 µM, partner dose 8 µM)",84.1%,93.2%,93.8%,93.7%,56.3%,60.7%,58.7%,89.4%,65.4%,40.6%,92.3%,93.9%,80.1%,67.8%,56.1%,91%,85.9%,57.6%,51.6%,97.7%
"Cc1cc(SCc2sc(-c3ccc(C(F)(F)F)c(F)c3)nc2C)ccc1OCC(=O)O + CC(C)CCN1c2nc(Nc3cc(F)c(O)c(F)c3)ncc2N(C)C(=O)C1C [BID1870] (first compound 10 µM, partner dose 1 µM)",69.7%,89.2%,78.5%,89.5%,100%,80.1%,106%,85.3%,95.1%,76%,71.2%,82.5%,84.9%,59.8%,76.3%,102%,101%,85.9%,91.1%,66.6%
"O=C(Nc1cccc(Cl)c1)Nc1ncc(CCNc2ncnc3ccsc23)s1 + O=C(Oc1ccc([N+](=O)[O-])cc1)N1CCC(C(O)(c2ccc3c(c2)OCO3)c2ccc3c(c2)OCO3)CC1 [JZL184] (first compound 0.004 µM, partner dose 5 µM)",57.5%,56.4%,57.8%,95.2%,81.6%,65.1%,59.7%,45.6%,40.2%,83.9%,37.7%,65.4%,86.4%,68.7%,66.3%,55.3%,29.7%,50.6%,35.1%,42.9%
"Cc1ccc(Nc2nccc(N(C)c3ccc4c(C)n(C)nc4c3)n2)cc1S(N)(=O)=O [Pazopanib] + C[As](C)SC[C@H](NC(=O)CC[C@H](N)C(=O)O)C(=O)NCC(=O)O [Darinaparsin] (first compound 2 µM, partner dose 2 µM)",63.4%,63.6%,90.3%,70.4%,54.1%,78.8%,57.9%,79.3%,60.7%,97.5%,66.4%,84.4%,70.6%,54.2%,73.2%,60%,92.7%,72%,66.8%,69.8%
"COc1cc(Nc2ncc(F)c(Nc3ccc4c(n3)NC(=O)C(C)(C)O4)n2)cc(OC)c1OC [Tamatinib] + Cc1cc(SCc2sc(-c3ccc(C(F)(F)F)c(F)c3)nc2C)ccc1OCC(=O)O [GW0742] (first compound 2 µM, partner dose 10 µM)",78.3%,88.9%,75.9%,122%,61.2%,75.4%,75.2%,75.4%,69%,93.1%,69.9%,78.1%,93.2%,55.6%,70.6%,85.6%,91.3%,89.1%,45.2%,82.7%
"Cn1nnc2c(C(N)=O)ncn2c1=O [temozolomide] + C/C(O)=C(\C#N)C(=O)Nc1cc(Br)ccc1Br [LFM-A13] (first compound 10 µM, partner dose 10 µM)",88.3%,84.4%,81.9%,102%,99.2%,84.3%,26.7%,97.8%,79.8%,85.9%,41.5%,122%,66.1%,104%,95.7%,81.8%,109%,116%,94.2%,83.5%
"C[C@@H](Oc1cc(-c2cnn(C3CCNCC3)c2)cnc1N)c1c(Cl)ccc(F)c1Cl [Crizotinib] + C[As](C)SC[C@H](NC(=O)CC[C@H](N)C(=O)O)C(=O)NCC(=O)O [Darinaparsin] (first compound 1 µM, partner dose 2 µM)",96.3%,112%,102%,89.6%,158%,102%,104%,84.8%,87%,80.4%,74.2%,103%,96%,69.7%,82.1%,85.2%,66.1%,75.2%,69.3%,65.6%
"O=C(/C=C/c1cccnc1)NCCCCC1CCN(C(=O)c2ccccc2)CC1 + C[C@]12O[C@H](C[C@]1(O)CO)n1c3ccccc3c3c4c(c5c6ccccc6n2c5c31)CNC4=O [Lestaurtinib] (first compound 0.05 µM, partner dose 0.02 µM)",2.78%,26.8%,79%,60.2%,90.3%,41.4%,39%,82.3%,120%,41.4%,56.6%,11.8%,71%,60.8%,90.4%,76.2%,93.8%,71.2%,74.1%,62.3%
"CN(NC(=O)CC(=O)NN(C)C(=S)c1ccccc1)C(=S)c1ccccc1 + Cc1cc(SCc2sc(-c3ccc(C(F)(F)F)c(F)c3)nc2C)ccc1OCC(=O)O [GW0742] (first compound 0.03 µM, partner dose 10 µM)",38.8%,71.6%,19%,22.4%,165%,68.7%,95.4%,10.3%,51%,87.4%,10.1%,66.2%,81.3%,52%,96.8%,75.2%,30.4%,89.3%,19.6%,93.7%
"Nc1cccc2c1CN(C1CCC(=O)NC1=O)C2=O (centres undefined) [lenalidomide] + C/C(O)=C(\C#N)C(=O)Nc1cc(Br)ccc1Br [LFM-A13] (first compound 5 µM, partner dose 10 µM)",102%,111%,103%,97.5%,108%,105%,96.4%,98.9%,87.1%,94.8%,77.4%,96.3%,87.1%,87.3%,85.4%,64.2%,103%,90.8%,91.7%,81.1%
"C=C(c1ccc(C(=O)O)cc1)c1cc2c(cc1C)C(C)(C)CCC2(C)C [Bexarotene] + C[As](C)SC[C@H](NC(=O)CC[C@H](N)C(=O)O)C(=O)NCC(=O)O [Darinaparsin] (first compound 10 µM, partner dose 2 µM)",86.4%,82.7%,92.8%,95.2%,166%,98.1%,82.8%,85.8%,68.3%,67.5%,76.9%,87.5%,96.4%,107%,76.4%,81.2%,113%,66.1%,96.8%,68.4%
"OCCn1cc(-c2cnc3nnn(Cc4ccc5ncccc5c4)c3n2)cn1 + O=C(Oc1ccc([N+](=O)[O-])cc1)N1CCC(C(O)(c2ccc3c(c2)OCO3)c2ccc3c(c2)OCO3)CC1 [JZL184] (first compound 5 µM, partner dose 5 µM)",111%,109%,2.7%,130%,280%,105%,115%,122%,121%,134%,111%,102%,90.2%,101%,96.2%,106%,108%,87.1%,103%,85.4%
"COc1ccc(-c2ccc3c(N4CCOCC4)nc(N4C[C@@H](C)O[C@@H](C)C4)nc3n2)cc1CO + O=C(Oc1ccc([N+](=O)[O-])cc1)N1CCC(C(O)(c2ccc3c(c2)OCO3)c2ccc3c(c2)OCO3)CC1 [JZL184] (first compound 0.1 µM, partner dose 5 µM)",112%,79.8%,99.8%,106%,108%,84.1%,96.5%,79.7%,96.7%,125%,105%,89.5%,98.1%,71.1%,86%,99.7%,80.1%,91%,106%,78.3%
"O=C(Nc1cccc(Cl)c1)Nc1ncc(CCNc2ncnc3ccsc23)s1 + C/C(O)=C(\C#N)C(=O)Nc1cc(Br)ccc1Br [LFM-A13] (first compound 0.004 µM, partner dose 10 µM)",66.3%,70.1%,55.2%,79.8%,95.2%,58.2%,66%,72.9%,50.9%,68.7%,37.5%,72.2%,73.6%,71.3%,83.5%,74.4%,41.3%,42.8%,51.4%,71.8%
"CCCCCCCCCCCCCCCCCCOP(=O)([O-])OC1CC[N+](C)(C)CC1 [Perifosine] + Cn1cc(C2=C(c3cn(C4CCN(Cc5ccccn5)CC4)c4ccccc34)C(=O)NC2=O)c2ccccc21 [Enzastaurin] (first compound 2 µM, partner dose 4 µM)",96.8%,99%,100%,89.3%,138%,103%,103%,75.4%,26.7%,47.5%,88.5%,95.2%,105%,98.4%,107%,84.6%,99.2%,92.2%,70.7%,83.2%
"CN(NC(=O)CC(=O)NN(C)C(=S)c1ccccc1)C(=S)c1ccccc1 + C/C(O)=C(\C#N)C(=O)Nc1cc(Br)ccc1Br [LFM-A13] (first compound 0.03 µM, partner dose 10 µM)",33.8%,69.4%,46.6%,21.9%,79.6%,84.5%,86.7%,16.6%,81.2%,73.5%,15.4%,69.2%,89%,38.5%,93.8%,42.3%,19.4%,82.8%,37.6%,74.2%
"CCN(CC)CCNC(=O)c1c(C)[nH]c(/C=C2\C(=O)Nc3ccc(F)cc32)c1C [sunitinib] + C/C(O)=C(\C#N)C(=O)Nc1cc(Br)ccc1Br [LFM-A13] (first compound 2 µM, partner dose 10 µM)",103%,77.9%,96.5%,83.9%,105%,107%,86.8%,67.9%,71.7%,118%,76.4%,86.1%,57%,54.3%,89.6%,74.4%,55.6%,85.1%,,52.7%
